Structures can show the parent of a compound that is named as a salt. ± gives the standard deviation of the averaged measurements. Whole data set: some 3,200 compounds, median “nuclei count (viability) relative to DMSO” near 99, cut for the lowest 2% near 16. The list shows a part of the results.

The test deals with U2OS. In words: nuclei count (viability) relative to DMSO (% of DMSO); higher = more viable cells. Particulars: 10 µM; 24 h. The method, then:
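Primary image-based screen in U2OS cells: compounds at 10 uM for 24 h, then a 1 h o-propargyl-puromycin (OPP) pulse, click labelling, and high-throughput microscopy. Mean cytoplasmic OPP intensity and nuclei count were normalised to DMSO wells within each plate (DMSO = 100) and averaged over triplicate plates.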
The molecule `CC1=C(C(=O)O)N2C(=O)[C@@H](NC(=O)[C@H](N)c3ccccc3)[C@H]2SC1` [Cephalexin (Cefalexin)] had a nuclei count of 103. For `O=C1CC2(CCCC2)CC(=O)N1CCCCNCC1COc2ccccc2O1` (configuration not stated) the value was 105; for `CCCc1c(OCCCOc2ccc(OCC(=O)O)cc2)ccc(C(C)=O)c1O`, 108. `CC1(C)CC(=O)C(C2C3=C(CC(C)(C)CC3=O)Oc3ccccc32)C(=O)C1` (configuration not stated) came in with a nuclei count of 89. For `O=S(=O)(c1cccc2c(Cl)cccc12)N1CCCNCC1` [ML 9 hydrochloride] the value was 95.7; for `CCOCCn1c(N2CCCN(C)CC2)nc2ccccc21` [Emedastine], 98.8. For `CN1CC(=O)N=C1NC(=O)Nc1cccc(Cl)c1` [Fenobam] the value was 98.4. For `COc1cc(C2Oc3ccc(C4Oc5cc(O)cc(O)c5C(=O)C4O)cc3OC2CO)ccc1O` (configuration not stated) [Silymarin (Silybin B)] the value was 108; for `COc1ccc2c(c1)c(CC(=O)OCC(=O)O)c(C)n2C(=O)c1ccc(Cl)cc1` [Acemetacin], 95.7. For `O=C1C(O)=C(O)C(=O)C(O)=C1O` [Tetrahydroxy-1,4-quinone monohydrate], the nuclei count was found to be 106. For `Cc1nccn1CC1CCc2c(c3ccccc3n2C)C1=O` (configuration not stated) [Ondansetron Hydrochloride] the value was 97; for `CC(=O)NC[C@H]1CN(c2ccc(N3CCOCC3)c(F)c2)C(=O)O1` [Linezolid], 101. Consider `Cn1sc(=O)n(Cc2ccccc2)c1=O`, for which the nuclei count was found to be 84.3. For `COc1ccc2cc3[n+](cc2c1OC)CCc1cc2c(cc1-3)OCO2` [Berberine HCl] the value was 98.6. On to `COc1cc2c(cc1Cc1cccc(Cl)c1F)c(=O)c(C(=O)O)cn2[C@H](CO)C(C)C` [Elvitegravir (GS-9137)], for which the nuclei count turned out to be 96.3. Consider `Nc1ncnc2c1ncn2[C@@H]1O[C@H](CO)C[C@H]1O` [Cordycepin], for which the nuclei count was found to be 100.

Molecule `CCCC[C@@H](C=O)NC(=O)OC(C)(C)C` showed a nuclei count of 106. For `Brc1ccc(C2CN3CCSC3=N2)cc1` [L-p-Bromotetramisole oxalate] the value was 98.8; for `c1cc(CN2CCCCC2)cc(OCCCNc2nc3ccccc3s2)c1` [Zolantidine dimaleate], 105. For `CCc1cc2c(cc1CC)CC(NC[C@H](O)c1ccc(O)c3[nH]c(=O)ccc13)C2` [Indacaterol Maleate] the value was 95.9; for `CNCC(O)c1ccc(O)c(O)c1` (configuration not stated) [Racepinephrine HCl], 96.4. For `CCOC1O[C@H]([C@@H](COCc2ccccc2)OCc2ccccc2)[C@H](OCc2ccccc2)[C@H]1O` (some centres not stated) [Tribenoside] the value was 90.5; for `Cc1c(-c2ccc(O)cc2)n(Cc2ccc(OCCN3CCCCCC3)cc2)c2ccc(O)cc12` [Bazedoxifene HCl], 82.9.

Molecule `CCOC(=O)[C@@H](C)Oc1cccc2c(=O)n(CC(=O)Nc3ccc4c(c3)OCCO4)ccc12` yielded a nuclei count of 108.

As for `CC[C@H](CO)Nc1nc(Nc2cccc(-c3ccccn3)c2)c2ncn(C(C)C)c2n1` [(R)-DRF053 dihydrochloride], the nuclei count came to 76.2.

The molecule `CC(=O)Nc1c(I)c(C(=O)N[C@H]2C(O)O[C@H](CO)[C@@H](O)[C@@H]2O)c(I)c(N(C)C(C)=O)c1I` (some centres not stated) [Metrizamide] gave a nuclei count of 105. For `Cc1ccccc1N1CCN(S(=O)(=O)C[C@]23CC[C@H](C[C@@H]2NC(=O)[C@@H](N)CCS(C)(=O)=O)C3(C)C)CC1` [L-368,899 hydrochloride] the value was 108.

In turn, `O=C(O)c1ccnc(C(=O)O)c1` [2,4-Pyridinedicarboxylic Acid] displayed a nuclei count of 97.2. `NC[C@H](O)c1ccc(O)c(O)c1` [Noradrenaline bitartrate monohydrate (Levophed)] yielded a nuclei count of 105.

In the case of `CCN(CC)CCNC(=O)c1ccc(N)cc1` [Procainamide hydrochloride], the nuclei count was found to be 101. For `CN[C@H]1CC[C@@H](c2ccc(Cl)c(Cl)c2)c2ccccc21` [Sertraline hydrochloride] the value was 84.1; for `CN[C@H]1CC[C@@H](c2ccc(Cl)c(Cl)c2)c2ccccc21` [Sertraline HCl], 88.6. For `CN[C@H]1CC[C@@H](c2ccc(Cl)c(Cl)c2)c2ccccc21` [Sertraline] the value was 101; for `C[C@@H]1CCC[C@H](C)N1NC(=O)c1ccc(Cl)c(S(N)(=O)=O)c1` [Clopamide], 110. On to `CC[C@H]1OC(=O)[C@H](C)[C@@H](O[C@H]2C[C@@](C)(OC)[C@@H](O)[C@H](C)O2)[C@H](C)[C@@H](O[C@@H]2O[C@H](C)C[C@H](N(C)C)[C@H]2O)[C@](C)(O)C[C@@H](C)CN(C)[C@H](C)[C@@H](O)[C@]1(C)O` [Azithromycin (Zithromax)], for which the nuclei count was 90.6. For `CC[C@H]1OC(=O)[C@H](C)[C@@H](O[C@H]2C[C@@](C)(OC)[C@@H](O)[C@H](C)O2)[C@H](C)[C@@H](O[C@@H]2O[C@H](C)C[C@H](N(C)C)[C@H]2O)[C@](C)(O)C[C@@H](C)CN(C)[C@H](C)[C@@H](O)[C@]1(C)O` [Azithromycin] the value was 94.3; for `N#Cc1c(N(CC(=O)O)CC(=O)O)sc(C(=O)O)c1CC(=O)O` [Strontium ranelate (Protelos)], 101. For `CCn1c(N)c(C(=O)NC)c(=O)c2ccc(C#CC(C)(O)COC)nc21` (configuration not stated) the value was 96.5 ± 3.1; for `CCOC(=O)C1=C(C)NC(=S)NC1c1cccc(O)c1` (configuration not stated) [Monastrol], 79.7; for `OCCn1cc(-c2ccc3c(c2)CC/C3=N\O)c(-c2ccncc2)n1`, 102. For `CC(C)[N+]1(C)[C@@H]2CC[C@H]1C[C@@H](OC(=O)C(CO)c1ccccc1)C2` (some centres not stated) [Ipratropium bromide] the value was 101; for `Cc1ccc(-c2cc(C(F)(F)F)nn2-c2ccc(S(N)(=O)=O)cc2)cc1` [Celecoxib], 98.2 ± 3.7; for `Nc1ccc(S(=O)(=O)Nc2nccs2)cc1` [Sulfathiazole], 98.1. Molecule `O=C(O)c1cccc(-c2noc(-c3ccccc3F)n2)c1` [PTC124 (Ataluren)] registered a nuclei count of 94.7. For `CC(CNC1CCCCC1)OC(=O)c1ccccc1` (configuration not stated) [Hexylcaine hydrochloride] the value was 100.

Regarding `CO/N=C(\C(=O)N[C@@H]1C(=O)N2C(C(=O)O)=C(COC(C)=O)CS[C@H]12)c1csc(N)n1` [Cefotaxime sodium salt], the nuclei count came out at 71.3. For `COC1CCC(C(=O)c2ccc3nc4c(cc3c2)CCCO4)CC1` (configuration not stated) the value was 96.5. For `C=C[C@](C)(O)CC[C@@H]1[C@@]2(C)CCCC(C)(C)[C@@H]2CC[C@@]1(C)O` [Sclareol] the value was 102; for `C[C@]12CC[C@@H]3c4ccc(O)cc4C[C@@H](CCCCCCCCC[S+]([O-])CCCC(F)(F)C(F)(F)F)[C@H]3[C@@H]1CC[C@@H]2O` (some centres not stated), 101.

Regarding `C[C@]12CC[C@@H]3c4ccc(O)cc4C[C@@H](CCCCCCCCC[S+]([O-])CCCC(F)(F)C(F)(F)F)[C@H]3[C@@H]1CC[C@@H]2O` (some centres not stated) [Fulvestrant], the nuclei count stood at 99. For `C[C@]12CC[C@@H]3c4ccc(O)cc4C[C@@H](CCCCCCCCC[S+]([O-])CCCC(F)(F)C(F)(F)F)[C@H]3[C@@H]1CC[C@@H]2O` (some centres not stated) [Fulvestrant (Faslodex)] the value was 99.6; for `NC(=O)N/N=C/c1ccc(Oc2ccc(F)cc2)cc1`, 99.5. For `Clc1ccc(C2(c3ccc(-c4cn[nH]c4)cc3)CCNCC2)cc1` the value was 39. For `COc1cc(CNC(=O)CCCC/C=C/C(C)C)ccc1O` [(E)-Capsaicin] the value was 100; for `COc1cc(CNC(=O)CCCC/C=C/C(C)C)ccc1O` [Capsaicin], 101 ± 3; for `CCS(=O)(=O)c1cccc(-c2cc(C(=O)NC3CCN(C)CC3)c(C)c3[nH]c4ncc(C)cc4c23)c1`, 17.8. Consider `C1CCC(N=C(NC23CC4CC(CC(C4)C2)C3)N2CCOCC2)CC1`, for which the nuclei count is 93.4.

With `COC(=O)[C@H](Cc1ccccc1)NC(=O)[C@@H](N)CC(=O)O` [Aspartame], the nuclei count is 108. For `O=C(/C=C/c1ccc(O)c(O)c1)O[C@H](Cc1ccc(O)c(O)c1)C(=O)O` [Rosmarinic acid] the value was 88 ± 5.2; for `CCCCOc1cc(C(=O)OCCN(CC)CC)ccc1N` [Benoxinate hydrochloride], 102; for `CC(C)c1ccccc1S(=O)(=O)c1cc(N)c2ncccc2c1[N+](=O)[O-]`, 89.8. For `CCOC(=O)C1=C(N)Oc2ccc(Br)cc2C1C(C#N)C(=O)OCC` (configuration not stated) the value was 87.1 ± 14; for `NC1(Cc2ccc(Cl)cc2)CCN(c2ncnc3[nH]ccc23)CC1`, 73.1; for `Cc1cc(C(C)Nc2ccccc2)c2nc(N3CCOCC3)cc(=O)n2c1` (configuration not stated), 99.3. For `Clc1ccc2nsnc2c1NC1=NCCN1` [Tizanidine hydrochloride] the value was 101; for `Clc1ccc2nsnc2c1NC1=NCCN1` [Tizanidine HCl], 90.8. In the case of `Cc1cc(Nc2cc(N3CCN(C)CC3)nc(Sc3ccc(NC(=O)C4CC4)cc3)n2)n[nH]1` [VX-680 (MK-0457, Tozasertib)], the nuclei count is 46.4. For `CC(C)Oc1ccc2c(=O)c(-c3ccccc3)coc2c1` [Ipriflavone] the value was 93.1; for `CC(=O)Nc1nnc(S(N)(=O)=O)s1` [Acetazolamide], 98.3. For `Nc1nc(OCc2cc(Br)cs2)c2[nH]cnc2n1` [Lomeguatrib] the value was 102. `CCCCOc1ccc(C(=O)Nc2ccc(F)cc2F)cc1` returned a nuclei count of 98.7. For `Cc1cc2cc3c(C)cc(=O)oc3c(C)c2o1` [Trioxsalen] the value was 102; for `CCCOc1ccccc1-c1nc2[nH]nnc2c(=O)[nH]1` [Zaprinast], 106 ± 3.4.

`CCC[C@@H]1C[C@@H](C(=O)N[C@@H]([C@H]2O[C@H](SC)[C@H](OP(=O)(O)O)[C@@H](O)[C@H]2O)[C@H](C)Cl)N(C)C1` [Clindamycin phosphate] showed a nuclei count of 104. `CCCCCCNC(=O)n1cc(F)c(=O)[nH]c1=O` [Carmofur] returned a nuclei count of 97.7. For `Cc1nc(C(=O)NCC(=O)O)c(O)c2ccc(Oc3ccccc3)cc12` the value was 106.

The molecule `COC(=O)C1=CO[C@@H](O)[C@@H]2C(CO)=CC[C@H]12` [Genipin] had a nuclei count of 87.2.

These data come from the supplement of paper PMC8183993.
